These results are taken from PubChem BioAssay AID360 (National Center for Advancing Translational Sciences (NCATS), 2006).

Molecules are shown by their SMILES. About 550 (1.1%) of roughly 48,000 compounds were called active. Roughly 4% stayed inconclusive and do not appear here. No stated cut-off is given here; in the data, active means potency below about 15 µM; inconclusive means mostly about 16 µM to 33 µM; inactive means weaker than that. The list shows a part of the results. A value given as a limit tells only on which side of the number the result lay.
Potency means the concentration at half of the fitted maximal effect.

Chain of UniProt P04062 (P04062 whole entry, looked up): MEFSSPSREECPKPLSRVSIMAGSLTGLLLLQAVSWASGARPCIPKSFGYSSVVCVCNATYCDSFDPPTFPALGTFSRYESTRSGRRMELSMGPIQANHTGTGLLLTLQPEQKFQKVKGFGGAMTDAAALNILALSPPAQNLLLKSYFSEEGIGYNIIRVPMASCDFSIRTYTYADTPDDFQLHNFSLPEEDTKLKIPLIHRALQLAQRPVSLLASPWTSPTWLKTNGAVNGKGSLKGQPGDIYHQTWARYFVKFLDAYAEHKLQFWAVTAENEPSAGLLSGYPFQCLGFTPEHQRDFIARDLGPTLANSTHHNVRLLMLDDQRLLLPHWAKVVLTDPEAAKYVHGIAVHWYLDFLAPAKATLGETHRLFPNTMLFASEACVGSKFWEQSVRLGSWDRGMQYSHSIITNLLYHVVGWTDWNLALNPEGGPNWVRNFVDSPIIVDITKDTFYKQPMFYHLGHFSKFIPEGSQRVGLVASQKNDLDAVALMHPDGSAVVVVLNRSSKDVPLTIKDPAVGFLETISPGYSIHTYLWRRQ

The test addresses Lysosomal acid glucosylceramidase (Homo sapiens) (UniProt P04062). As to the kind of experiment: Glucocerebrosidase.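 Further: the screen sought inhibitors.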 The following applies: purified enzyme, resorufin glucoside fluorescence (screen aimed at inhibitors), 20 min. In outline:
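Normal human glucocerebrosidase (0.2 nM final) was assayed with resorufin β-D-glucopyranoside (30 uM final) in 50mM citric acid/KH2PO4, 10mM sodium taurocholate, 0.01% tween-20, pH 5.9. Compounds were titrated; fluorescence (Ex 548, Em 600) read after 20 min at RT.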
Consider `CC(C)(C)NC(=O)C(OC(=O)Cn1nnc(-c2ccc(F)cc2)n1)c1ccncc1` (stereo not given), for which the Potency is inactive: > 76.9 µM.

On to `Cc1cccc2cc(CN(Cc3nnnn3Cc3ccccc3)C3CCCC3)c(=O)[nH]c12`, for which the Potency is inactive: > 76.9 µM.

As to `COC(=O)CSc1nnc(-c2cnccn2)n1C`, the Potency is inactive: > 76.9 µM.

As to `CCOC(=O)C1CCN(C(=O)c2oc3ccc(S(=O)(=O)N4CCCCCC4)cc3c2C)CC1`, the Potency was inactive: > 76.9 µM.

Regarding `CCOC(=O)C1=C(C)NC(=O)C(C(N)=O)C1c1ccccc1` (stereo not given), the Potency is inactive: > 76.9 µM.

As to `CCCNc1nc2c(c(=O)n(C)c(=O)n2C)n1CCc1ccccc1`, the Potency is inactive: > 76.9 µM.

Turning to `COc1ccc2c(c1OC)C(=O)N1c3ccccc3COC21` (stereo not given), the Potency is inactive: > 76.9 µM.

On to `CC(/C(O)=C(\C#N)c1nc2ccccc2n1C)N1C(=O)c2ccccc2C1=O` (stereo not given), for which the Potency is inactive: > 76.9 µM.

As to `Cc1nc2ccccc2c(=O)n1/N=C/c1cn(-c2ccccc2)nc1-c1cccs1`, the Potency is inactive: > 76.9 µM.

On to `Cn1c(CCN2CCCCC2)nc2cc(NC(=O)NC3CCCCC3)ccc21`, for which the Potency was inactive: > 76.9 µM.

For the molecule `CCn1c(SCC(=O)Nc2cc(C)on2)nnc1-c1ccncc1`, the Potency was inactive: > 76.9 µM.

As to `Cc1cc2c(cc1C)N(CC(=O)N1CCCC1)C(=O)CC(c1ccccc1)=N2`, the Potency is inactive: > 76.9 µM.

For `Cc1[nH]nc2c1C(c1ccc3c(c1)OCO3)C(C#N)=C(N)O2` (stereo not given), the Potency is inactive: > 76.9 µM.

`CCc1nnc2sc(-c3ccc(NC(=O)c4ccco4)cc3)nn12`: the Potency is inactive: > 76.9 µM.

In the case of `O=C(CSc1ncn[nH]1)Nc1ccc(Cl)c(Cl)c1`, the Potency was inactive: > 76.9 µM.

For `CC(C)c1c(C#N)c(N)nc(SCC(=O)c2cc3ccccc3oc2=O)c1C#N`, the Potency was inactive: > 76.9 µM.

Turning to `Cn1c(C(O)c2ccccc2F)nc(Cl)c1Cl` (stereo not given), the Potency was inactive: > 76.9 µM.

As to `CC1(C)Cc2c(sc3c2c(=N)n(Cc2ccco2)c(=O)n3Cc2ccccc2)CO1`, the Potency is inactive: > 76.9 µM.

Regarding `Cc1ccccc1-c1nnc(SCC(=O)Nc2cccc(C)c2C)o1`, the Potency was inactive: > 76.9 µM.

As for `O=C(c1cc2nc(C3CC3)cc(C(F)(F)F)n2n1)N1CCCC1`, the Potency was inactive: > 76.9 µM.

For the molecule `FC(F)(F)c1cc(-c2ccco2)nc(N2CCOCC2)n1`, the Potency entry was “inactive”.

Take `Cc1nnc(NC2(C(F)(F)F)C(=O)Nc3c2c(=O)n(C)c(=O)n3C)s1` (stereo not given): the Potency was inactive: > 76.9 µM.

Consider `NC(=O)c1ccc(-c2ncc(-c3ccccc3)o2)cc1`, for which the Potency is inactive: > 76.9 µM.

`CCc1ccc(N2CC(C(=O)Nc3nccs3)CC2=O)cc1` (stereo not given): the Potency was inactive: > 76.9 µM.

`COC(=O)[C@@H](NC(=O)N1CCN(c2cccc(C(F)(F)F)c2)CC1)C(C)C`: the Potency is inactive: > 76.9 µM.
